Data on 61 compounds can be found in the supplement of paper PMC9135407.

“And” between values parts separate entries of the source, which are not always exact repeats. Equal entries are not always repeated. Structures can show the parent of a compound that is named as a salt. The whole screen tested about 5,800 compounds, of which about 620 (11%) showed activity.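 Rule for the calls: active = score above a cut-off or among the top three wells of a plate; in these data no inactive exceeds 0.85.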 Only a part is listed here, and it is no random draw.

In this assay the test system is primary human hepatic stellate cells (donor 1). The assay can be described thus: scaled lipid accumulation score (0 = DMSO-like, 1 = nortriptyline-like); higher = stronger HSC inactivation (lipid re-accumulation), active = hit call of the paper. The settings on record: 48 h.
The mark [1] stands for this setting: library stock concentration: 10 mM.
The mark [2] stands for this setting: library stock concentration: 3.33 mM.
Where [3] appears, read: library stock concentration: 1 mM.
[4] abbreviates: library stock concentration: 7.7 mM.

On to `CCCOc1ccc2[nH]cc(C3=CCNCC3)c2n1`, for which the “scaled lipid accumulation score” value under setting [1] is inactive: 0.748. Regarding `COc1ccc(Cc2nccc3cc(OC)c(OC)cc23)cc1OC` [Papaverine hydrochloride], the “scaled lipid accumulation score” value was inactive: ≤ 0. Further, where the note is “library stock concentration: 5.3 mM”, the “scaled lipid accumulation score” value was inactive: ≤ -0.001. The “scaled lipid accumulation score” value under setting [1] was inactive: ≤ 0 and inactive: ≤ -0.055.

Regarding `N=C1NC(=O)N2CC12` (stereo not drawn), the “scaled lipid accumulation score” value under setting [1] was inactive: 0.032. As to `NCC(O)c1ccc(O)cc1` (racemic) [(+,-)-Octopamine hydrochloride], the “scaled lipid accumulation score” value is inactive: ≤ 0. For `NCC(O)c1ccc(O)cc1` (racemic) [(+,-)-Octopamine HCl], the “scaled lipid accumulation score” value runs as follows: under setting [2], inactive: ≤ 0; under setting [1], inactive: ≤ -0.001. For `CCCCCCCCCC(=O)OC[C@H](COP(=O)([O-])OCC[N+](C)(C)C)OC(=O)CCCCCCCCC` [1,2-Didecanoyl PC], the “scaled lipid accumulation score” value under setting [3] was inactive: ≤ 0.

As to `CN=C(NS(=O)(=O)c1ccc(Cl)cc1)N1C[C@H](c2ccccc2)C(c2ccc(Cl)cc2)=N1`, the “scaled lipid accumulation score” value under setting [3] was inactive: ≤ 0. Regarding `CCCCCc1cc(O)c2c(c1)OC(C)(C)C1CCC(C(=O)O)=CC21` (stereo not drawn) [Tetrahydrocannabinol-7-oic acid], the “scaled lipid accumulation score” value under setting [3] was inactive: ≤ -0.021.

For the compound `CCCCC/C=C\C[C@@H](/C=C/C=C\C/C=C\CCCC(=O)O)OO`, where the note is “library stock concentration: 100 uM”, the “scaled lipid accumulation score” value is inactive: ≤ -0.021. Turning to `Cc1nc(N)sc1CCN` [Amthamine dihydrobromide], the “scaled lipid accumulation score” value under setting [1] is inactive: ≤ 0. `[N-]=[N+]=CC(=O)OC[C@H](N)C(=O)O` [Azaserine]: the “scaled lipid accumulation score” value is inactive: 0.135 under setting [1] and inactive: ≤ 0 (library stock concentration: 11.6 mM). As to `C[C@@H](N)Cc1cnc[nH]1` [Histamine, R(-)-alpha-methyl-, dihydrochloride], the “scaled lipid accumulation score” value under setting [1] is inactive: 0.085. Regarding `Clc1cc(I)cc(Cl)c1NC1=NCCN1` [p-Iodoclonidine hydrochloride], under setting [1], the “scaled lipid accumulation score” value was inactive: 0.059. With `COc1ccc2c3c([nH]c2c1)C(C)=NCC3` [Harmaline], under setting [1], the “scaled lipid accumulation score” value is inactive: 0.389. For the compound `COc1ccc2c3c([nH]c2c1)C(C)=NCC3` [Harmaline hydrochloride dihydrate], the “scaled lipid accumulation score” value is inactive: 0.371.

Turning to `C[C@@H]1O[C@@H](O[C@H]2C[C@@H](O)[C@]3(CO)[C@H]4[C@H](O)C[C@]5(C)[C@@H](C6=CC(=O)OC6)CC[C@]5(O)[C@@H]4CC[C@]3(O)C2)[C@H](O)[C@H](O)[C@H]1O` [Ouabain], the “scaled lipid accumulation score” value (library stock concentration: 8.6 mM) was inactive: 0.734. `CCN(C)C(=O)Oc1cccc([C@H](C)N(C)C)c1` [Rivastigmine Tartrate]: the “scaled lipid accumulation score” value under setting [2] was inactive: ≤ 0 and the “scaled lipid accumulation score” value under setting [1] is inactive: ≤ 0. For the compound `CCN(C)C(=O)Oc1cccc([C@H](C)N(C)C)c1` [Rivastigmine], the “scaled lipid accumulation score” value (library stock concentration: 8 mM) was inactive: ≤ -0.006.

With `CCCN1CCC[C@H](c2cccc(O)c2)C1` [R(+)-3PPP hydrochloride], under setting [1], the “scaled lipid accumulation score” value is inactive: ≤ 0. `NC(=O)COc1c(F)cc(SCCNS(=O)(=O)c2ccccc2)cc1F`: under setting [1], the “scaled lipid accumulation score” value was inactive: ≤ -0.055. In the case of `C[N+]1(C)CCN(c2ccccc2)CC1` [1,1-Dimethyl-4-phenyl-piperazinium iodide], the “scaled lipid accumulation score” value under setting [1] was inactive: ≤ -0.07. On the same count and under the same terms, for `C[N+]1(C)CCN(c2ccccc2)CC1` the value was inactive: ≤ 0; for `C[C@H](Cc1ccc2c(c1)OC(C(=O)O)(C(=O)O)O2)NC[C@H](O)c1cccc(Cl)c1`, inactive: ≤ 0.

As for `O=c1[nH]c2ccccc2n1C1CCN(CCCC(c2ccc(F)cc2)c2ccc(F)cc2)CC1` [Pimozide], the “scaled lipid accumulation score” value under setting [1] is active: 1.21. With `C[N+]1(C)[C@@H]2C[C@@H](OC(=O)[C@H](CO)c3ccccc3)C[C@H]1[C@@H]1O[C@@H]12` [Methscopolamine], the “scaled lipid accumulation score” value is, setting by setting: under setting [2], inactive: ≤ 0; under setting [1], inactive: ≤ 0.

In the case of `C[N+]1(C)[C@@H]2C[C@@H](OC(=O)[C@H](CO)c3ccccc3)C[C@H]1[C@@H]1O[C@@H]12` [Methscopolamine bromide], the “scaled lipid accumulation score” value was inactive: 0.005 (library stock concentration: 5 mM) and inactive: ≤ 0 under setting [1]. As for `C[N+]1(C)[C@@H]2C[C@@H](OC(=O)[C@H](CO)c3ccccc3)C[C@H]1[C@@H]1O[C@@H]12` [(-)-Scopolamine methyl bromide], the “scaled lipid accumulation score” value under setting [1] was inactive: ≤ 0. With `Cn1cc(C(=O)C(=O)N[C@H]2CN3CCC2CC3)c2ccccc21`, the “scaled lipid accumulation score” value under setting [1] was inactive: 0.403. For `CCn1cc(C(=O)O)c(=O)c2cc3c(cc21)OCO3` [Oxolinic acid], the “scaled lipid accumulation score” value is inactive: ≤ 0. Moreover, the “scaled lipid accumulation score” value under setting [4] is inactive: ≤ 0. Also, the “scaled lipid accumulation score” value under setting [1] was inactive: ≤ 0 and inactive: ≤ -0.055. Turning to `N[C@@]1(C(=O)O)CC[C@@H](C(=O)O)C1`, under setting [1], the “scaled lipid accumulation score” value is inactive: ≤ 0. Consider `CC1=NCCc2c1[nH]c1cc(O)ccc21.Cl.O.O` [Harmalol hydrochloride dihydrate], for which the “scaled lipid accumulation score” value was active: 0.979. For `CN(C(=O)Cc1ccc(Cl)c(Cl)c1)C(CN1CCCC1)c1cccc(OCC(=O)O)c1` (stereo not drawn) [ICI 204,448 hydrochloride], the “scaled lipid accumulation score” value under setting [1] is inactive: 0.053. On the same count and under the same terms, in the case of `NCCc1ccc(O)cc1` [4-Hydroxyphenethylamine hydrochloride] it was inactive: ≤ 0. Still for that read-out and setting: in the case of `NCCc1ccc(O)cc1` [Tyramine] it was inactive: ≤ 0.

Take `CN(C)C(=O)Oc1cc(OC(=O)N(C)C)cc(C(O)CNC(C)(C)C)c1` (stereo not drawn) [Bambuterol HCl]: the “scaled lipid accumulation score” value runs as follows: under setting [2], inactive: ≤ 0; under setting [1], inactive: ≤ -0.001. For the compound `CN(C)C(=O)Oc1cc(OC(=O)N(C)C)cc(C(O)CNC(C)(C)C)c1` (stereo not drawn) [Bambuterol], where the note is “library stock concentration: 5.4 mM”, the “scaled lipid accumulation score” value is inactive: 0.084. Regarding `CN(C)C(=O)Oc1cc(OC(=O)N(C)C)cc(C(O)CNC(C)(C)C)c1` (stereo not drawn) [Bambuterol hydrochloride], the “scaled lipid accumulation score” value was inactive: 0.078. For `O=C1NC(=O)c2c1c1c3ccccc3n3c1c1c2c2ccccc2n1C1CCC3O1`, under setting [1], the “scaled lipid accumulation score” value is active: 1.3. `CCN1C[C@]2(COC)[C@H](O)C[C@H](OC)[C@@]34[C@@H]5C[C@@]6(O)[C@H](OC(=O)c7ccccc7)[C@@H]5[C@@](OC(C)=O)([C@@H]([C@H](OC)[C@H]23)[C@@H]14)[C@@H](O)[C@@H]6OC` [Aconitine]: the “scaled lipid accumulation score” value is inactive: 0.045. Moreover, the “scaled lipid accumulation score” value (library stock concentration: 3.1 mM) is inactive: ≤ 0. The “scaled lipid accumulation score” value under setting [4] was inactive: ≤ -0.021. The “scaled lipid accumulation score” value under setting [1] was inactive: 0.042 and inactive: ≤ 0. `COC[C@@H]([C@H](O)[C@H](O)C(=O)NCC[C@H](C)c1nc(/C=C/C[C@@H]2O[C@]3(C[C@@H](O)[C@@H]2C)O[C@H]([C@H](C[C@H](O)[C@H](C)[C@H](O)[C@H](C)/C=C(C)/C(C)=C/C=C/C(C)=C\C#N)OC)[C@H](OP(=O)(O)O)C3(C)C)co1)N(C)C` [Calyculin A]: the “scaled lipid accumulation score” value (library stock concentration: 500 uM) was inactive: 0.228. Consider `COc1ccc(CCN2CCC(Nc3nc4ccccc4n3Cc3ccc(F)cc3)CC2)cc1` [Astemizole], for which the “scaled lipid accumulation score” value under setting [1] was active: 0.907. Regarding `CCN1C[C@]2(COC(=O)c3ccccc3N3C(=O)C[C@H](C)C3=O)CC[C@H](OC)[C@@]34[C@@H]5C[C@H]6[C@H](OC)[C@@H]5[C@](O)(C[C@@H]6OC)[C@](O)([C@@H](OC)[C@H]23)[C@@H]14` [Methyllycaconitine citrate], under setting [1], the “scaled lipid accumulation score” value is inactive: ≤ -0.006. Consider `CCCCC/C=C\C/C=C\C/C=C\C/C=C\CCCC(=O)NC` [Arachidonoyl-N-methyl amide], for which the “scaled lipid accumulation score” value under setting [3] is inactive: 0.044.

In the case of `COc1ccc2c(c[n+](C)c3c4cc5c(cc4ccc23)OCO5)c1OC` [Chelerythrine Chloride], the “scaled lipid accumulation score” value under setting [2] is inactive: 0.656. With `COc1ccc2c(c[n+](C)c3c4cc5c(cc4ccc23)OCO5)c1OC` [Chelerythrine chloride], the “scaled lipid accumulation score” value was inactive: ≤ -0.016 (library stock concentration: 80 uM); inactive: ≤ -0.016 (library stock concentration: 400 uM); inactive: 0.308 and inactive: 0.167 under setting [1]. On to `CNc1ccc2oc(C[C@H]3O[C@@]4(CC[C@H]3C)O[C@H]([C@H](C)C(=O)c3ccc[nH]3)[C@H](C)C[C@H]4C)nc2c1C(=O)O` [Calcimycin], for which the “scaled lipid accumulation score” value under setting [1] is inactive: 0.658.

With `CNc1ccc2oc(C[C@H]3O[C@@]4(CC[C@H]3C)O[C@H]([C@H](C)C(=O)c3ccc[nH]3)[C@H](C)C[C@H]4C)nc2c1C(=O)O`, the “scaled lipid accumulation score” value (library stock concentration: 9.5 mM) is inactive: 0.688. With `O=C(O)c1ccc2[nH]cc(CCCCN3CC=C(c4ccccc4)CC3)c2c1` [Carmoxirole hydrochloride], the “scaled lipid accumulation score” value under setting [1] was inactive: 0.073. With `CC(=O)O[C@@]12C[C@@H](C)[C@@]3(O)[C@@H](C=C(CO)C[C@]4(O)C(=O)C(C)=C[C@@H]34)[C@@H]1C2(C)C` [Prostratin], under setting [3], the “scaled lipid accumulation score” value is active: 0.583.

`O=[N+]([O-])c1cc([As](=O)(O)O)ccc1O` [Roxarsone]: the “scaled lipid accumulation score” value is inactive: ≤ 0. For the same compound, the “scaled lipid accumulation score” value (library stock concentration: 7.6 mM) is inactive: ≤ 0. The “scaled lipid accumulation score” value under setting [1] was inactive: ≤ 0. Regarding `CC(N)Cc1cccc(C(F)(F)F)c1` (single isomer, unassigned; (+)) [(+)-Norfenfluramine hydrochloride], the “scaled lipid accumulation score” value under setting [1] was inactive: 0.072. For `c1ccc2c(c1)[I+]c1ccccc1-2` [Diphenyleneiodonium chloride], under setting [1], the “scaled lipid accumulation score” value was inactive: 0.216 and inactive: 0.086. Take `c1ccc2c(c1)[I+]c1ccccc1-2` [Diphenyleneiodonium]: the “scaled lipid accumulation score” value (library stock concentration: 17.9 mM) is inactive: 0.654. For `c1cncc(C2=NCCC2)c1` [Myosmine], the “scaled lipid accumulation score” value was inactive: ≤ 0. On to `CCCN(CCC)C1CCc2cccc(O)c2C1` (stereo not drawn) [8-Hydroxy-DPAT hydrobromide], for which, under setting [1], the “scaled lipid accumulation score” value is inactive: 0.055. Regarding `CCCN(CCC)C1CCc2cccc(O)c2C1` (stereo not drawn), the “scaled lipid accumulation score” value under setting [1] is inactive: ≤ -0.07. In the case of `Cn1c2cccc(=O)c-2nc2ccccc21` [Pyocyanin], the “scaled lipid accumulation score” value under setting [3] is inactive: ≤ 0. Regarding `C[C@]12CC[C@@H]3c4ccc(OC(=O)N(CCCl)CCCl)cc4CC[C@H]3[C@@H]1CC[C@@H]2O`, the “scaled lipid accumulation score” value under setting [1] was inactive: 0.409. With `CCCN1CCc2cccc3c2[C@H]1Cc1ccc(O)c(O)c1-3` [R(-)-Propylnorapomorphine hydrochloride], the “scaled lipid accumulation score” value under setting [1] was inactive: ≤ -0.038. On to `Cc1ccc(C[N+](C)(C)C)o1` [5-Methylfurmethiodide], for which the “scaled lipid accumulation score” value under setting [1] is inactive: 0.011. As for `CCCCCCCCCCCCCCCC(=O)OCC(COP(=O)([O-])OCC[N+](C)(C)C)OC(C)=O` (stereo not drawn), the “scaled lipid accumulation score” value under setting [3] is inactive: 0.014.
